Drawing on paper PMC10726135, this text covers binding signal (log2 normalized intensity) for 72 sequences.

This is one part of the list. At the low end of the ranking, values are background and their order means little. Measured with an extract: partners may take part in the binding.

The target in the experiment is T1, HNF4alpha2 (COS-7 nuclear extract) (UniProt P41235).
T1 sequence: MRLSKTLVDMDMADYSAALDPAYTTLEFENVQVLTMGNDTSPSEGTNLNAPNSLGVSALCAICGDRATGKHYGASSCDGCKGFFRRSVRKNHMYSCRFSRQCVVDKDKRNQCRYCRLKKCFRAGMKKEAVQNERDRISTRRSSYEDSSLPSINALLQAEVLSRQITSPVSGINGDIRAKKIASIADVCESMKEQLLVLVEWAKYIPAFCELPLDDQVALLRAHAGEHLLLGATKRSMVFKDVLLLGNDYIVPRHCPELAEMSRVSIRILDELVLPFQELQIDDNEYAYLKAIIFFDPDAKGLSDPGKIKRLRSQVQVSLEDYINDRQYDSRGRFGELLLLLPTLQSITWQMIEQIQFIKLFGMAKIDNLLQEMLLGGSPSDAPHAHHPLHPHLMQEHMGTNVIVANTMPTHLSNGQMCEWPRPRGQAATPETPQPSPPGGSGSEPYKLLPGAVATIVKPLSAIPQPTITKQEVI
Put plainly: protein-binding microarray. Particulars: COS-7 nuclear extract on double-stranded Agilent 4x180k PBM; binding buffer, salt, pH and temperature not given; high values mean tight binding; double strand, one strand shown; sequences stand for … in …GCCTAGGGAGATTAGAGTATCGGTCGA
Take CAGTGGGAGACAGGCATTAACCCTTTAGTG: the binding signal (log2 normalized intensity) is 0.725.

As for GTGTAAACAAGTGAGCATGGCTGTGTTCCA, the binding signal (log2 normalized intensity) was 0.523. In the case of TTGTTCAATAAGCAATACATTGAACTTTGA, the binding signal (log2 normalized intensity) is 7.41. Next, AGAACCAAAGTCCTAGAGTCCCTATTTGCT: -1.11; CACTGGGGTCATGGAGCTGGAGGGCAAAGG: 3.25; AGCAATTCAAATTCTTTGCCATGACCTTTG: 5.51. Next, TCTGTGTAGAAATTGTGGCTTGTGTAGTTA: 1.65; TTCTCATCTTATCTAGTTTCCTAGCTCACT: -0.208; GCAAGCCAGTCAGAATCTCTCTGTAGGTAA: 0.523. Next, ACAGTGATTGTCACAAGACTGTTATCACAG: -0.552; TGACCTTTGAAACTTACATTCTAAAGCAGA: 4.45. As for TCTGGGTTAAACGTGCAGCAATAGGTCAGA, the binding signal (log2 normalized intensity) is 1.78. With ACAAGGTGTGTTTGAGCAGGGGTGAACAAA, the binding signal (log2 normalized intensity) is 0.938. In the case of TACCATGTGTTGGCACTTTGGACTTGAGAA it was 4.51; in that of TCCAAAGGTCACAGTAGGGAAAGTGGGGGG, 1.49; in that of CCTCTCTCTCCTGGCCTCTGAGATTCGGTG, -0.573. In the case of AGGGCCTAGAAGAGTTCCTGACAATTGGCC it was -1.19; in that of TGAGGCTAAGAGGTGAACACATTCCTCATT, -1.18; in that of GACCAGCATTCTTTCTGCTGCAATTTAAGC, -1.25. Next, TGCTCTCTCTCTTTTTCTGAGCCTGGGTCA: 1.91; TTGCTTAAGCATAGCAAAAGTGACCTTTGC: 8.56. Take AAGGTTGGTCTTAGGACCACATGAGTAAAC: the binding signal (log2 normalized intensity) was -0.756.

TGCAGCGGCATTCTCTGGTCTGCGGTTGTG: the binding signal (log2 normalized intensity) came out at 1.25. On to CACCCCAGCAAACAGGTCCTGCTGGTTTGC, for which the binding signal (log2 normalized intensity) amounted to 0.79. In the case of TTTCTGAGCAGGATGTCCAGAATGAGTGTG, the binding signal (log2 normalized intensity) came to 1.49.

Consider GTGGTGAGGAAAAGGAGGAGTTTGACCCCA, for which the binding signal (log2 normalized intensity) worked out at 6.43. As to ACTGGGTCTTAATAAGATAATAAGTGACCC, the binding signal (log2 normalized intensity) was 3.78. Next, TCCTTGATTAAACTTTAGTCAGATTCCTCT: 1.33; TCAGTGAAGGCCTCTGATGATTCTAAAGGC: -1.26. Take TCCCTAACCCTTCAAGGGCCACTCAGTTGA: the binding signal (log2 normalized intensity) was -1.07. For the sequence CAAGGACACTGAAAGGCATTCTGCCAACAC, the binding signal (log2 normalized intensity) is -1.1. Consider ATTTGCCACCAATGCCTCTATGTAGCAATC, for which the binding signal (log2 normalized intensity) was -0.194. For AAAAATAGGAGACTGTCTTAGGAAAGAACA, the binding signal (log2 normalized intensity) is -1.08. Regarding AAGCCTTATCACTGTTTGGCCTATGGGAAA, the binding signal (log2 normalized intensity) amounted to 1. In the case of TGGTATGCTAGAGTACTTGGACTTTAACCT, the binding signal (log2 normalized intensity) stood at 9.48.

For TAAAGTTCAGCTTCTCTTGTTTGTGTAACT, the binding signal (log2 normalized intensity) was 1.07. AAAGAACAAACTTCCCCTGCAGCTGATCAT: the binding signal (log2 normalized intensity) was -0.953.

On to GACAGATGAAAGCATATTTGGCCACATCCT, for which the binding signal (log2 normalized intensity) is -1.08.

Turning to GTTCTGCAGACTCCCTAGAAGAGTGAACCT, the binding signal (log2 normalized intensity) came to 1.73. For CATCCACATGGGCGTCACCAACCAGCCCTC, the binding signal (log2 normalized intensity) is 3.08. As for TGGATCAGCACTGGGTGGGGATAAGAAAAG, the binding signal (log2 normalized intensity) was -1.09. With GGTGAGATAAGAAGACTCCAGGGGACTGCC, the binding signal (log2 normalized intensity) is -0.872. Next, GCTGCGCGGGGCCTCCCAGTGGTATGCCTC: -1.19; GATAAGAGAAGTTGCTCTTTACACCATTGC: 1.25. With GCTGCATGTCATGACCTTCATCAATCAGCC, the binding signal (log2 normalized intensity) is 1.29.

Take ATAAAACCAGTCAGGCAAACAACAGGCATC: the binding signal (log2 normalized intensity) was -1.07. As for CTTTGGACTTTCAAAAGTTAAGGTCAAGAC, the binding signal (log2 normalized intensity) stood at 1.94. With GCTCCTGTTCCTTTGTTACACTGGCTGCCC, the binding signal (log2 normalized intensity) worked out at 1.93.

As for TTATCTTCACATTCCATCATCACGGTGGAC, the binding signal (log2 normalized intensity) worked out at 1.8. Next, CGGGGATGGCAGACGGGGCTCTCAGAATCT: -1.11; CAGCTGGGGCCACCTTTTCAGCTTCCTCCT: -1.01; CCTTTGACTCATTATCCCCCGCAACTATTT: 3.26. In the case of TAAGCACTTGTGGTATGTTTGGATTGGGCA it was 2.14. Next, ATGACTCTCTTATAGGTGTTTATAAAGTTG: 2.26.

For the sequence TAGACAAACAGCAATAGCAAGACTGCAAAA, the binding signal (log2 normalized intensity) is -1.25. Turning to GACTAGGCACAGGAACCTGTTTTACAGGAC, the binding signal (log2 normalized intensity) was -1.25. Regarding CTTCATAGTGGTTTGACTTTTTTTTTTTTT, the binding signal (log2 normalized intensity) is 2.55. Regarding CCACATCGAAGGCCAAGGGATTTCAGTGCC, the binding signal (log2 normalized intensity) was -1.07. Next, AAGGAGCTTGGGAAGACAGATGTGATATTC: -0.781; CTTCTCACCACCTCTGCTGCGATCACCCAG: -1.13. GCATATCTCTAGATCTCAGTTGGTCCAAGG: the binding signal (log2 normalized intensity) amounted to 1.83.

With CAACTAGGCCTGAAATTTGGCCTGCTGAGC, the binding signal (log2 normalized intensity) was -1.17. Consider ATAACACTATTTGATGAGTCTTAGAGTCCA, for which the binding signal (log2 normalized intensity) worked out at 2.26. As for ACTTTGCCCTTTTTTTCTCTCCCCTTTTAA, the binding signal (log2 normalized intensity) was 2.54.

For the sequence GTGTCAGTCCAGAGTTTGTGGCTCCATACT, the binding signal (log2 normalized intensity) was -0.558. Turning to ACCGTCTTGTGGATCCTTGGAGGACCTTGG, the binding signal (log2 normalized intensity) amounted to 1.76.

Turning to AATATGTGGACTTCAAAGGTACTTATCAGA, the binding signal (log2 normalized intensity) turned out to be 1.35. In the case of CCCCCTATGTAAAGGCCTTTGAAGCTTGAA, the binding signal (log2 normalized intensity) worked out at 2.52. Take CCTCAAATTACAAAAGGAGTTGGGGGACAG: the binding signal (log2 normalized intensity) is -1.18. Regarding GCCAACCTTGGGTCTACATGGAAGCCCAGA, the binding signal (log2 normalized intensity) is -1.18. Next, AGAATAAATATTTGGTGAATAAACAAATAA: -1.09; GCAGACATTTAGGCAAACATAAACTCAGAG: -1.1.
